A lower IC50 marks a more sensitive line; where the fit passes the top or lowest dose, that dose stands as a limit. For AUC the same curve is integrated over the 256-fold range of doses and scaled to a fraction; values near 1 show little effect. For some assays here: A top dose marked as inferred comes from the curve model; the source does not state it. For some assays here: Where an entry number is given, a second screen of the drug exists; the two often differ.
What was measured:
Assay in all cases: Viability of human cancer cell lines after 72 h of drug (GDSC screen)
[1] = compound: Cc1ccc(NC(=O)c2ccc(CN3CCN(C)CC3)cc2)cc1Nc1nc(-c2cccnc2)cs1 [Masitinib]; details: top dose 20 µM
Method: (§1)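 Human cancer cell lines in 384-well plates, medium with 10% serum, drug for 72 h over a 256-fold dose range (nine 2-fold or five 4-fold steps up to the top dose). Adherent lines were fixed and stained with the nucleic acid dye Syto60, suspension lines read with resazurin; signal relative to control wells, capped at 0 and 100%. One two-parameter sigmoid per drug and line, fitted in a mixed model over all curves with the slope shared within a line.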

[2] = compound: O=S(=O)(O)c1ccc2cc(N=Nc3cc(S(=O)(=O)O)c4cccnc4c3O)ccc2c1 [NSC-87877]; details: top dose 16 µM; top dose inferred
Method: as §1

[3] = compound: CN(NC(=O)CC(=O)NN(C)C(=S)c1ccccc1)C(=S)c1ccccc1 [Elesclomol]; details: top dose 0.2 µM; top dose inferred
Method: as §1

[4] = compound: CC/C(=C(\c1ccccc1)c1ccc(OCCN(C)C)cc1)c1ccccc1 [Tamoxifen]; details: top dose 5 µM
Method: as §1

[5] = compound: O=C(Nc1ccc(OC(F)(F)F)cc1)c1sccc1NCc1ccnc2ccccc12 [OSI-930]; details: top dose 10.24 µM
Method: as §1

[6] = compound: Cc1c(N)nc([C@H](CC(N)=O)NC[C@H](N)C(N)=O)nc1C(=O)N[C@H](C(=O)N[C@H](C)[C@@H](O)[C@H](C)C(=O)N[C@H](C(=O)NCCc1nc(-c2nc(C(=O)NCCC[S+](C)C)cs2)cs1)[C@@H](C)O)[C@@H](OC1OC(CO)C(O)C(O)C1OC1OC(CO)C(O)C(OC(N)=O)C1O)c1cnc[nH]1 [Bleomycin]
Method: as §1

[7] = compound: CCCC(=O)OCc1ccc(OC(=O)/C=C(C)/C=C/C=C(C)/C=C/C2=C(C)CCCC2(C)C)cc1 [VNLG/124]; details: top dose 5.12 µM; top dose inferred
Method: as §1

[8] = compound: O=C(Nc1cccc(Nc2ncc(Br)c(NCCc3cnc[nH]3)n2)c1)N1CCCC1 [BX-912]; details: top dose 10.24 µM; top dose inferred
Method: as §1

[9] = compound: COc1cc(N2CCC(C(N)=O)CC2)ccc1Nc1nc(N)c(Cl)c(Nc2ccccc2S(=O)(=O)C(C)C)n1 [HG-5-88-01]; details: top dose 10 µM; top dose inferred
Method: as §1

[10] = compound: O=C(/C=C/c1ccc(CN(CCO)CCc2c[nH]c3ccccc23)cc1)NO [LAQ824]; details: top dose 1.024 µM; top dose inferred
Method: as §1

[11] = top dose 50 µM, screen: GDSC drug entry 1378, top dose inferred
[12] = top dose 64 µM, screen: GDSC drug entry 190

Cell Line	AUC [1]	IC50 [1]	AUC [2]	IC50 [2]	AUC [3]	IC50 [3]	AUC [4]	IC50 [4]	AUC [5]	IC50 [5]	AUC [6, 11]	IC50 [6, 11]	AUC [6, 12]	IC50 [6, 12]	AUC [7]	IC50 [7]	AUC [8]	IC50 [8]	AUC [9]	IC50 [9]	AUC [10]	IC50 [10]
NB14 (neuroblastoma, adherent)	0.907	> 20 µM	0.988	> 16 µM	0.314	0.0039 µM	0.983	> 5 µM	0.987	> 10.2 µM	0.606	5.99 µM	0.715	15.5 µM	0.987	> 5.12 µM	0.91	> 10.2 µM	0.619	1.31 µM	0.429	0.0415 µM
NOS-1 (osteosarcoma, adherent)	0.772	9.51 µM	0.978	> 16 µM	0.257	0.0021 µM	0.949	> 5 µM	0.927	> 10.2 µM	0.77	23.4 µM	0.381	1.74 µM	0.925	> 5.12 µM	0.707	2.83 µM	0.941	> 10 µM	0.287	0.0138 µM
8305C (thyroid, adherent)	0.973	> 20 µM	0.957	> 16 µM	0.77	0.0997 µM	0.958	> 5 µM	0.977	> 10.2 µM	0.792	30.9 µM	0.239	0.544 µM	0.978	> 5.12 µM	0.904	> 10.2 µM	0.89	> 10 µM	0.374	0.0258 µM
NCI-H650 (lung adenocarcinoma, adherent)	0.945	> 20 µM	0.974	> 16 µM	0.628	0.0293 µM	0.985	> 5 µM	0.971	> 10.2 µM	0.834	37.2 µM	0.865	> 64 µM	0.986	> 5.12 µM	0.808	5.98 µM	0.888	> 10 µM	0.658	0.185 µM
IHH-4 (thyroid, semi-adherent)	0.91	18.2 µM	0.992	> 16 µM	0.068	< 0.000781 µM	0.992	> 5 µM	0.968	> 10.2 µM	0.033	< 0.195 µM	0.178	0.571 µM	0.984	> 5.12 µM	0.987	> 10.2 µM	0.989	> 10 µM	0.423	0.0412 µM
TMK-1 (stomach, adherent)	0.969	> 20 µM	0.986	> 16 µM	0.61	0.0255 µM	0.984	> 5 µM	0.974	> 10.2 µM			0.377	1.79 µM	0.982	> 5.12 µM	0.98	> 10.2 µM	0.938	> 10 µM	0.416	0.0371 µM
ASH-3 (thyroid, adherent)	0.983	> 20 µM	0.967	> 16 µM	0.622	0.0271 µM	0.987	> 5 µM	0.982	> 10.2 µM	0.672	9.44 µM	0.639	9.69 µM	0.983	> 5.12 µM	0.983	> 10.2 µM	0.939	> 10 µM	0.578	0.105 µM
HSC-4 (head and neck, adherent)	0.969	> 20 µM	0.977	> 16 µM	0.371	0.0049 µM	0.935	> 5 µM	0.974	> 10.2 µM			0.921	> 64 µM	0.972	> 5.12 µM	0.97	> 10.2 µM	0.788	6.05 µM	0.632	0.167 µM
DND-41 (T-cell leukaemia, suspension)	0.592	2.16 µM	0.982	> 16 µM	0.58	0.0201 µM	0.903	> 5 µM	0.946	> 10.2 µM	0.117	0.23 µM	0.08	< 0.25 µM	0.983	> 5.12 µM	0.447	0.466 µM	0.975	> 10 µM	0.246	0.0133 µM
TUR (B-cell lymphoma, suspension)	0.793	8.38 µM	0.985	> 16 µM	0.77	0.0704 µM	0.928	> 5 µM	0.91	> 10.2 µM	0.542	4.04 µM	0.735	17.5 µM	0.859	3.72 µM	0.75	3.13 µM	0.919	> 10 µM	0.343	0.0244 µM
LB373-MEL-D (melanoma, adherent)	0.979	> 20 µM	0.99	> 16 µM	0.529	0.015 µM	0.989	> 5 µM	0.979	> 10.2 µM	0.884	> 50 µM	0.815	34.4 µM	0.99	> 5.12 µM	0.981	> 10.2 µM	0.888	> 10 µM	0.538	0.081 µM
SK-LMS-1 (soft tissue, adherent)	0.902	> 20 µM	0.771	5.86 µM	0.482	0.0112 µM	0.974	> 5 µM	0.947	> 10.2 µM	0.258	0.66 µM	0.419	2.43 µM	0.987	> 5.12 µM	0.866	8.4 µM	0.816	5.19 µM	0.448	0.0466 µM
Becker (glioma, adherent)	0.976	> 20 µM	0.984	> 16 µM	0.598	0.0241 µM	0.964	> 5 µM	0.96	> 10.2 µM	0.58	5.34 µM	0.692	14.9 µM	0.944	> 5.12 µM	0.934	> 10.2 µM	0.974	> 10 µM	0.568	0.101 µM
SW684 (fibrosarcoma, adherent)	0.961	> 20 µM	0.983	> 16 µM	0.943	> 0.2 µM	0.98	> 5 µM	0.971	> 10.2 µM	0.798	37.9 µM	0.981	> 64 µM	0.982	> 5.12 µM	0.982	> 10.2 µM	0.973	> 10 µM	0.818	0.962 µM
EKVX (lung adenocarcinoma, adherent)	0.967	> 20 µM	0.97	> 16 µM	0.639	0.0473 µM	0.896	> 5 µM	0.956	> 10.2 µM	0.833	> 50 µM	0.799	> 64 µM	0.948	> 5.12 µM	0.961	> 10.2 µM	0.84	> 10 µM	0.746	0.765 µM
WM35 (melanoma, adherent)	0.781	8.36 µM	0.969	> 16 µM	0.333	0.00426 µM	0.975	> 5 µM	0.936	> 10.2 µM	0.748	16.3 µM	0.103	< 0.25 µM	0.985	> 5.12 µM	0.957	> 10.2 µM	0.888	> 10 µM	0.289	0.0162 µM
SW948 (large intestine, adherent)	0.894	> 20 µM	0.972	> 16 µM	0.981	> 0.2 µM	0.98	> 5 µM	0.926	> 10.2 µM	0.739	21.2 µM	0.923	> 64 µM	0.977	> 5.12 µM	0.881	> 10.2 µM	0.97	> 10 µM	0.537	0.0843 µM
RPMI-7951 (melanoma, adherent)	0.837	12.8 µM	0.963	> 16 µM	0.673	0.0373 µM	0.986	> 5 µM	0.931	> 10.2 µM	0.448	2.27 µM	0.393	2.06 µM	0.961	> 5.12 µM	0.879	9.92 µM	0.945	> 10 µM	0.456	0.0488 µM
VA-ES-BJ (soft tissue, adherent)	0.889	> 20 µM	0.985	> 16 µM	0.426	0.00774 µM	0.953	> 5 µM	0.976	> 10.2 µM	0.414	1.79 µM	0.21	0.528 µM	0.981	> 5.12 µM	0.94	> 10.2 µM	0.984	> 10 µM	0.507	0.0671 µM
A427 (non-small cell lung carcinoma, adherent)	0.955	> 20 µM	0.987	> 16 µM	0.373	0.00555 µM	0.962	> 5 µM	0.957	> 10.2 µM	0.483	2.81 µM	0.033	< 0.25 µM	0.987	> 5.12 µM	0.906	> 10.2 µM	0.985	> 10 µM	0.459	0.0493 µM
RKN (ovary, adherent)	0.889	> 20 µM	0.983	> 16 µM	0.579	0.0208 µM	0.981	> 5 µM	0.973	> 10.2 µM	0.198	0.37 µM	0.807	35.3 µM	0.984	> 5.12 µM	0.793	4.99 µM	0.872	> 10 µM	0.571	0.101 µM
EPLC-272H (lung squamous cell carcinoma, adherent)	0.874	> 20 µM	0.978	> 16 µM	0.648	0.0341 µM	0.957	> 5 µM	0.876	> 10.2 µM	0.605	6.32 µM	0.266	0.776 µM	0.957	> 5.12 µM	0.542	0.843 µM	0.883	> 10 µM	0.557	0.0933 µM
COLO-684 (endometrium, suspension)	0.889	> 20 µM	0.978	> 16 µM	0.524	0.0147 µM	0.981	> 5 µM	0.98	> 10.2 µM	0.948	> 50 µM	0.907	> 64 µM	0.967	> 5.12 µM	0.845	8.78 µM	0.964	> 10 µM	0.459	0.0487 µM
COLO-783 (melanoma, adherent)	0.988	> 20 µM	0.989	> 16 µM	0.821	0.11 µM	0.99	> 5 µM	0.991	> 10.2 µM	0.971	> 50 µM	0.862	51.2 µM	0.986	> 5.12 µM	0.991	> 10.2 µM	0.986	> 10 µM	0.789	0.433 µM

From the supplement of paper PMC4967469
